Results taken from the supplement of paper PMC12217912.
Some of the results follow. Sequences were assembled here from the parent chain. Inactive controls read about 0.05.

B1: TEV protease; numbered along this chain (parent)
chain: MGESLFKGPRDYNPISSSICHLTNESDGHTTSLYGIGFGPFIITNKHLFRRNNGTLVVQSLHGVFKVKDTTTLQQHLVDGRDMIIIRMPKDFPPFPQKLKFREPQREERICLVTTNFQTKSMSSMVSDTSCTFPSGDGIFWKHWIQTKDGQCGSPLVSTRDGFIVGIHSASNFTNTNNYFTSVPKNFMELLTNQEAQQWVSGWRLNADSVLWGGHKVFMVKPEEPFQPVKEATQL

Variants of: B1
Experiment: raw area under fraction-flipped curve 0-4 h after induction (AUC4h, not background-subtracted), DNA-recorder readout of cleavage of the substrate (dimensionless); higher = more cleavage of the substrate by the protease variant
Conditions: temperature: 34 °C; time window: 0-4 h after rhamnose induction
Procedure: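 In vivo DNA recorder in E. coli TOP10(DE3) ΔrhaA at 34 °C. Each TEVp single-site mutant (parent TEVp 0) is paired with a single-site variant of the 7-mer TEVs (canonical ENLYFQ|S). The substrate sits between flexible linkers in a Bxb1-sfGFP-TEVs-SsrA fusion, so cleavage stabilises Bxb1 and speeds flipping of a recombination array, read by NGS. The value is the raw area under the fraction-flipped curve over 0-4 h after rhamnose induction (AUC4h), with ≥20 reads per time point. It is not background-subtracted; inactive controls average about 0.047.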
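Also: Bxb1 expression induced with 0.2% (w/v) L-rhamnose at OD600 near 0.5, cultures sampled hourly, flipped fraction per protease–substrate barcode pair counted by paired-end Illumina sequencing.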

Variant | area with substrate ENLYFAS | area with substrate ENLYFIS | area with substrate ENLYFMS | area with substrate ENLYFPS | area with substrate ENLYFVS | area with substrate ENLYFCS | area with substrate ENLYFDS | area with substrate ENLYFES | area with substrate ENLYFHS | area with substrate ENLYFKS | area with substrate ENLYFNS | area with substrate ENLYFRS | area with substrate ENLYFSS | area with substrate ENLYFTS | area with substrate ENLYFWS | area with substrate ENLYFYS | area with substrate ENLYFLS | area with substrate ENLYFFS | area with substrate ENLYFGS
P96Q | 0.0458 | 0.0589 | 0.0594 | 0.0665 | 0.0498 | – | – | – | – | – | – | – | – | – | – | – | – | – | –
P96W | 0.0597 | 0.0425 | 0.0536 | 0.0227 | – | 0.0744 | 0.0621 | 0.0689 | 0.0507 | 0.0533 | 0.0514 | 0.0709 | 0.0562 | 0.0539 | 0.0517 | – | – | – | –
P96T | 0.0663 | 0.063 | – | – | – | – | – | – | – | – | – | 0.0583 | – | – | 0.0586 | 0.0631 | – | – | –
P96C | 0.0637 | 0.059 | 0.0669 | 0.0542 | – | 0.0587 | – | 0.0841 | 0.0462 | – | 0.0628 | – | 0.0545 | 0.0682 | 0.059 | 0.0664 | 0.0695 | – | –
E108Q | 0.0476 | 0.0602 | – | 0.0506 | 0.0479 | 0.0307 | 0.0523 | 0.0581 | – | – | 0.0473 | 0.0567 | 0.0502 | 0.0504 | – | – | – | 0.0712 | 0.0652
R81H | 0.061 | 0.0594 | 0.0629 | 0.0688 | 0.073 | 0.063 | 0.0966 | 0.0353 | 0.0422 | 0.0574 | 0.065 | 0.0588 | 0.0664 | 0.0612 | 0.0566 | 0.0603 | – | – | –
K98W | 0.0551 | 0.0994 | 0.0641 | 0.0577 | 0.0501 | – | – | 0.0691 | – | 0.0615 | 0.0708 | 0.0593 | 0.0642 | 0.0547 | 0.0503 | 0.0603 | – | – | 0.0538
H76C | 0.0586 | 0.0596 | 0.0738 | 0.0602 | 0.0619 | 0.0797 | 0.0509 | 0.0338 | 0.0485 | 0.0713 | 0.0783 | 0.0729 | 0.0655 | 0.0596 | 0.0677 | – | 0.0612 | 0.0602 | 0.0583
D69P | 0.0506 | 0.0586 | 0.0665 | 0.0579 | 0.064 | – | 0.055 | 0.0626 | – | 0.0724 | 0.0661 | 0.0546 | 0.0777 | 0.0596 | 0.0564 | 0.0569 | – | 0.0703 | 0.0584
L56R | 0.0485 | 0.0399 | 0.0378 | 0.0539 | 0.0539 | 0.0328 | 0.0446 | 0.04 | – | 0.0458 | 0.0477 | 0.0527 | – | – | – | 0.2 | – | 0.0264 | 0.0553
L56G | 0.031 | 0.0415 | 0.0344 | 0.0553 | 0.0468 | 0.0435 | 0.0567 | 0.0562 | 0.0431 | 0.0433 | 0.052 | – | 0.0454 | 0.0192 | – | 0.0575 | – | 0.0541 | –
Q75N | 0.0592 | 0.0496 | 0.057 | 0.0514 | – | 0.0402 | – | 0.059 | – | – | – | – | 0.0561 | – | 0.0439 | – | – | 0.0692 | –
P104C | 0.0554 | 0.0558 | 0.0572 | 0.0634 | – | 0.0695 | 0.064 | 0.0648 | 0.0547 | 0.0593 | 0.0611 | 0.0606 | 0.0595 | 0.0057 | – | 0.0666 | – | 0.0683 | 0.0603
